This note sets out measurements from the supplement of paper PMC11417369.

The other results are listed elsewhere or left out.

The subject of the test is PfHDP1 homeodomain (GST-tagged). Description: gcPBM binding intensity (ln(normalized median fluorescence intensity)); higher = stronger DNA binding. Summed up: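 Plasmodium falciparum DNA-binding domains carrying a GST tag were expressed in E. coli and applied for 1 h, at about 25 μg on average, to an Agilent 4 × 180k array. The array held primer-extended double-stranded 36-bp intergenic genomic probes together with negative controls, and binding took place in 1× PBS with 1% milk, 0.2 mg/ml BSA, 0.5% salmon testes DNA and 0.03% Triton X-100. An Alexa488 anti-GST antibody detected bound protein, and the array was scanned at 488 nm. Binding intensity is taken as the highest Masliner-normalised natural-log median intensity across replicate spots of either probe orientation.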
For the sequence “ATATTTACCACTGTATGTACATATATAAAATATATC [XGTACX_site6373]”, the “gcPBM binding intensity (ln)” value came to 6.82. “ATTTAATTTATTATGTGTACTTATTTAATTAAATTA [XGTACX_site3171]”: the “gcPBM binding intensity (ln)” value came to 6.36. The result for “ATATTTTTATTTAAATCACATCATTTTGTTTATTTG [CACACA_negctrl_site1056]” reads 6.49; that for “CATATAATTATTGAAAGTACATACAAATAAAAAGAT [XGTACX_site6535]”, 7.11.

As to “TTATATATTTATAAATGTACATATAATTTTTTTATA [XGTACX_site4696]”, the “gcPBM binding intensity (ln)” value amounted to 6.37. Take “CTGATATATAGATGTAGTACATAAAAATGACGAATT [XGTACX_site5612]”: the “gcPBM binding intensity (ln)” value was found to be 6.55.

In the case of “CAAAATAAAAAATTCACACACATATAAATATAAATA [CACACA_site7065]”, the “gcPBM binding intensity (ln)” value was 6.44.

With “AAAAAAAAAGGTACTACACACTATTATCAATAGAAA [CACACA_site91]”, the “gcPBM binding intensity (ln)” value came to 6.26. The figure for “TACTTATTATGAAACACACACCAAAACTACAGAATA [CACACA_site6265]” is 7.04. Consider “ATATTTTATAATTTTACACACCATATAAAATAATTC [CACACA_site2797]”, for which the “gcPBM binding intensity (ln)” value worked out at 6.86.

Consider “ACATGAAACTATAAACGTACATACATACATATATAT [XGTACX_site5011]”, for which the “gcPBM binding intensity (ln)” value worked out at 6.53.

On to “AATAGTTAAATGTACACACTAACTACATGGAATATA [CACACA_site3262]”, for which the “gcPBM binding intensity (ln)” value was 6.18. The result for “TATATATAAAACATATGTACATATATATATATATAT [XGTACX_site419]” reads 9.44. The result for “AAGTAAAAAAATAGCACACACACAAAAACACCCACA [CACACA_site1291]” reads 7.17; that for “ATATATATATAGTGCACACATATAAAATATATATAA [CACACA_site2745]”, 10.8.

“TTTACAGATACTTGCTCACACATATGTATAAAAATA [CACACA_site4928]”: the “gcPBM binding intensity (ln)” value is 7.16. Consider “TATAATATATATAGGAGTACGTATGTATATTTATAA [XGTACX_site3521]”, for which the “gcPBM binding intensity (ln)” value turned out to be 6.65. With “AAAAAAATAAAATGTTCACACATTTCACAATTACTT [CACACA_site4859]”, the “gcPBM binding intensity (ln)” value amounted to 6.03. The figure for “AGAGGCCAGCTTTCTCTTCTAAACATGTACAAAAAT [GTGCAC_negctrl_site98]” is 6.4; for TGAGCACAAATACAGGTGCATATAAAATATATGACG it is 9.06; for “TTTTTAACATTTAAATGTACATGTTACAATTTAAAG [XGTACX_site8789]” it is 6.46.

For the sequence “TACTAAAACCCATACACACACATATATATAGTACCA [CACACA_site3184]”, the “gcPBM binding intensity (ln)” value turned out to be 6.77. The figure for “AGAGACTTAGAAAACACACATACATAAGATAATTTA [CACACA_site2377]” is 6.3. With “ACAGCATAATCATGCTGTACATTATTTTCTTAAGTA [XGTACX_site8456]”, the “gcPBM binding intensity (ln)” value stood at 6.13. “TTTTTATTTTTATACATATAATATATTATGATTAAA [CACACA_negctrl_site214]”: the “gcPBM binding intensity (ln)” value came to 6.69. “CGCGAAGTAGCATTCACACACAGCAAAATATATATA [CACACA_site3495]”: the “gcPBM binding intensity (ln)” value was found to be 6.83. The result for “CACTAATAGTGGATTACACACATATATATGTATATA [CACACA_site2531]” reads 6.62; that for “ACTTACACATTTATTACACACATAAAGGAAAATTTT [CACACA_site1356]”, 7.48. The figure for TTAAAAAATAACAAGGTGCAAATAGGTTTATAAAAT is 9.33; for “ATATTTAAATGGATCACACATATATATATATATATA [CACACA_site5255]” it is 9.5. As for “CATTTTTCTATATGTGCATGTAAGATAAGAATAATT [TGCATGCA_site107]”, the “gcPBM binding intensity (ln)” value was 8.14. The figure for “TTTCGTCATTTTGTTTTTAATTCTACAATTTAGTTA [XGTACX_negctrl_site286]” is 6.53; for “TCATATAATATTTATATGCACACTTTTCTATATATA [CACACA_site4075]” it is 8.75. The figure for “CCACTTTTTGAAGACACACACAAAAAAAAAAAAAAA [CACACA_site2551]” is 6.32; for “ATATAATGACAAGTATAAGTATCACAAAGAAATAAA [CACACA_negctrl_site1403]” it is 6.87; for “TTTTGAAGAAAATTCTTTTTTTTTTTTTTTTGTAAA [CACACA_negctrl_site102]” it is 5.64. On to “ATAACAATTATTTGTCGACACACGTATATGTTATTT [CACACA_site1766]”, for which the “gcPBM binding intensity (ln)” value was 6.91. The figure for “CAAGCTTTTTCCTTTACACACATTAATTATATATAT [CACACA_site1423]” is 7.42. On to “TGCAAAAAATTCCACACACACACACGCATATAAATA [CACACA_site6696]”, for which the “gcPBM binding intensity (ln)” value was found to be 6.72. As for “TAAAATAAAAGTGAAACACACAGTATTTTACAACAT [CACACA_site3811]”, the “gcPBM binding intensity (ln)” value amounted to 6.32. As to “AAAATAGCTGTATAGAGTACATATAAATAATGTTGT [XGTACX_site5692]”, the “gcPBM binding intensity (ln)” value came to 6.21. As for AGTGTGTGTAATAAAGTGCATTAAAAATGACACGTA, the “gcPBM binding intensity (ln)” value amounted to 9.52. As for “GTACATACATAAAACACACACATATAGATTTATATA [CACACA_site6945]”, the “gcPBM binding intensity (ln)” value came out at 6.5. The result for “ATATATATTTAAACTACACACGCATATCTTAGAAAT [CACACA_site8348]” reads 6.69. The figure for ACCCACTTTTGAGGTGTGCACAATAAATTGGACATT is 10.5; for “AGGAAAAAAAAAATGACACACATATTTGAATTAAAA [CACACA_site1352]” it is 6.16; for “TAAGAGATATTTTATTAAATGTTTTATGAATCATGT [TGCATGCA_negctrl_site264]” it is 5.57. The result for “AAAAAAAAAAGACACACACACATATAAATATAAATA [CACACA_site6899]” reads 6.76; that for “TCAAACGGTTAAATATGTACATATATATATATATAT [XGTACX_site2339]”, 9.07. Consider “ACTCATAAAAATAGATGTACTTTAATAATTTGATTT [XGTACX_site8763]”, for which the “gcPBM binding intensity (ln)” value worked out at 5.95. As for “AAGGAAATATAATATACACACATAAGTGTACTTCTA [CACACA_site6079]”, the “gcPBM binding intensity (ln)” value worked out at 6.24.

For the sequence “TTTCAAACAAAAAGACGTACACTGAAGTTATCCGTC [XGTACX_site8824]”, the “gcPBM binding intensity (ln)” value came to 6.19. Regarding “TTGTATTCATAACAACGTACATATTTTGTAACTAAA [XGTACX_site4029]”, the “gcPBM binding intensity (ln)” value is 6.26. The figure for “TATATATATAAACACACACACACCAAAGCGTAGCGC [CACACA_site7903]” is 7.7. The figure for “TATTAATAAAAGCATTGTACAGTAATAAATAAATAA [XGTACX_site2924]” is 6.66. “AGCCATTAATTCTCTACACACCTTTATGTTATTTAG [CACACA_site3635]”: the “gcPBM binding intensity (ln)” value was found to be 6.8.

With “CAATCAAATAGACACACACACACCTAAACATAAAAG [CACACA_site7322]”, the “gcPBM binding intensity (ln)” value worked out at 6.79. The figure for “ATATTAAAATGAAAATATAAAAAAAAAAAAAAAAAA [CACACA_negctrl_site1559]” is 6.12; for “CGCATGTATTTTGTGTGTACTAATTATAATCAACTT [XGTACX_site4709]” it is 6.62; for “TTTTACATATACATGTGTACATAACAAAGAATGTTT [XGTACX_site2406]” it is 6.57. The result for “AGTGTATTAATTCTCACACACTAAGAAAAAAAAAAA [CACACA_site6007]” reads 6.11; that for “TTTTTTAATAAATGGTGTACATATTTTTTTTATACT [XGTACX_site8584]”, 6.49; that for “TAATATTGTATTTATGTACACACATTTTTGGAATAT [CACACA_site8371]”, 6.48. The result for “ATTCATAATATTATAACACACGCTTATTACATAAAG [CACACA_site980]” reads 6.89.

Regarding “TGTATGTTTATTTGATGTACGGTCATACATATAAAT [XGTACX_site5176]”, the “gcPBM binding intensity (ln)” value was found to be 6.44. Consider “AAATTCATATGAATTTGTACGGACATAAATATCTTC [XGTACX_site1838]”, for which the “gcPBM binding intensity (ln)” value worked out at 6.32. The result for “TTTAATATTTTTTTTTGTACTTATTTGTAGAAATAT [XGTACX_site3046]” reads 6.48; that for “CTATTTTTTGTATAAACATGCATATAGTAGATATGG [TGCATGCA_site670]”, 6.47; that for “AGGCTCATTTTTTTTAGTACATCAAAAAAAAAAAAA [TGCATGCA_negctrl_site591]”, 6.29. As to “CCATAACTCATATGCACACATAAATATTACATATAT [CACACA_site3821]”, the “gcPBM binding intensity (ln)” value worked out at 10.3. The figure for “TTTTAAAAAGAAAAAAATAACATACATATATATATA [CACACA_negctrl_site240]” is 8.77; for “ATTTTTTTTTTTTTTTTTTTTGAGAAGAACTTTTTC [CACACA_negctrl_site1019]” it is 5.91. The figure for “ATGTCTACAGTTTTTGCACACATATAAATAAAAAAA [CACACA_site3600]” is 10.3; for “AAACATCATAAATATACACACATATTTATATTTATA [CACACA_site6437]” it is 6.66; for “AGATGGAGAAAGTTATGTACACATATATAAATATGT [XGTACX_site6150]” it is 6.29.

Consider “CCCATGTAATGAACATGTACATAATAATTTATAAAT [XGTACX_site8687]”, for which the “gcPBM binding intensity (ln)” value was 7.31.

Regarding “ATATATATATATATGTGTACATATGTATATATATCT [XGTACX_site2930]”, the “gcPBM binding intensity (ln)” value worked out at 9.27. The figure for “TATATACATATGTGATGTACATTTTTTGTAATATAA [XGTACX_site6985]” is 6.61; for “TAACACATATATTGTTGTACATTCAAACTGAAAAAT [XGTACX_site5565]” it is 6.62; for “TTTTTTTTATTAAAAAGTACTAAACAAATTATATAT [XGTACX_site121]” it is 6.37. “TTGTGAAATAAAATTTGTACACACATATATATATAT [XGTACX_site1078]”: the “gcPBM binding intensity (ln)” value came to 9.17.

Regarding “AAAATTTAAAGCATGACACACAATTATATTATGTGC [CACACA_site3435]”, the “gcPBM binding intensity (ln)” value is 5.96. As to “TTCTTTTCTTTAGTAGAATGTAAAAAATATAATCTT [XGTACX_negctrl_site290]”, the “gcPBM binding intensity (ln)” value turned out to be 6.03. “TTTTTTTTGGAATTCACACAAATATAACATGGGTAT [CACACA_site5185]”: the “gcPBM binding intensity (ln)” value came to 6.57. The result for “TACACAAGGGGAAAAATATATATATATATATATATA [TGCATGCA_negctrl_site217]” reads 9.34; that for “TAAAAGTATATATATACACACATAAATATATATGTA [CACACA_site663]”, 6.71; that for “TAAAAAATTTTATATTCACACACATATATATATATA [CACACA_site8109]”, 9.22.

Take “TTTTCATTCAATTATATTTATATATATATATATATA [GTGCAC_negctrl_site538]”: the “gcPBM binding intensity (ln)” value was found to be 9.21. As for “CAAAATATTTTTATAACACACATATATATAATGTGC [CACACA_site4767]”, the “gcPBM binding intensity (ln)” value amounted to 6.52.
